Data reported in the supplement of paper PMC9151546.
Many values rest on one well or one pass, so single values are uncertain.

What was measured:
CHO-K1 [1] = test: relative survival (nuclei to bead ratio vs DMSO control) (% of vehicle control); higher = more surviving cells
CHO-K1 [2] = test: hypodiploid nuclei frequency (% of nucleated events); higher = more hypodiploid events (aneugenic)
CHO-K1 [3] = test: micronucleus frequency (% of nucleated events); higher = more micronuclei (genotoxic)
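Throughout, for hypodiploid nuclei frequency (% of nucleated events): hypodiploid nuclei gated on a flow cytometer with 488 nm excitation after SYTOX Green staining, cultures at 37 °C, positive controls vinblastine without S9 and cyclophosphamide with S9.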
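Throughout, for micronucleus frequency (% of nucleated events): cells lysed with nuclei stained by SYTOX Green, then micronucleus-gated events counted against nucleated events by flow cytometry with 488 nm excitation.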
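Throughout, for relative survival (nuclei to bead ratio vs DMSO control): Lysed-cell nuclei stained with SYTOX Green and counted against counting beads by flow cytometry at 488 nm excitation, with vinblastine (no S9) and cyclophosphamide (plus S9) as positive controls.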

O=C(Nc1ccc(Cl)cc1)Nc1ccc(Cl)c(Cl)c1 [Triclocarban]
Conditions | hypodiploid nuclei frequency, CHO-K1 [2] [%] | micronucleus frequency, CHO-K1 [3] [%] | relative survival, CHO-K1 [1]
concentration: 4.5 (µM), S9 metabolic activation: with S9, exposure time: 3-4 hours | 0.22 | 1.02 | 114
concentration: 4.5 (µM), S9 metabolic activation: without S9, exposure time: 24 hours | 0.86 | 1.22 | 92.8
concentration: 5.63 (µM), S9 metabolic activation: with S9, exposure time: 3-4 hours | 0.24 | 1.1 | 106
concentration: 5.63 (µM), S9 metabolic activation: without S9, exposure time: 24 hours | 0.64 | 1.32 | 90.5
concentration: 7.04 (µM), S9 metabolic activation: with S9, exposure time: 3-4 hours | 0.34 | 0.94 | 94
concentration: 7.04 (µM), S9 metabolic activation: without S9, exposure time: 24 hours | 1.12 | 1.66 | 78.4
concentration: 8.8 (µM), S9 metabolic activation: with S9, exposure time: 3-4 hours | 0.16 | 1.04 | 116
concentration: 8.8 (µM), S9 metabolic activation: without S9, exposure time: 24 hours | 0.56 | 1.42 | 69.2
concentration: 11 (µM), S9 metabolic activation: with S9, exposure time: 3-4 hours | 0.28 | 0.96 | 108
concentration: 11 (µM), S9 metabolic activation: without S9, exposure time: 24 hours | 0.7 | 1.82 | 51.2
concentration: 13.7 (µM), S9 metabolic activation: with S9, exposure time: 3-4 hours | 0.4 | 1.08 | 103
concentration: 13.7 (µM), S9 metabolic activation: without S9, exposure time: 24 hours | 0.88 | 1.9 | 62.4
concentration: 17.2 (µM), S9 metabolic activation: with S9, exposure time: 3-4 hours | 0.14 | 1.26 | 109
concentration: 17.2 (µM), S9 metabolic activation: without S9, exposure time: 24 hours | 1.22 | 2.26 | 63
concentration: 21.5 (µM), S9 metabolic activation: with S9, exposure time: 3-4 hours | 0.22 | 1.02 | 88.2
concentration: 21.5 (µM), S9 metabolic activation: without S9, exposure time: 24 hours | 0.98 | 1.76 | 59.5
concentration: 26.8 (µM), S9 metabolic activation: with S9, exposure time: 3-4 hours | 0.2 | 1.18 | 104
concentration: 26.8 (µM), S9 metabolic activation: without S9, exposure time: 24 hours | 1.08 | 1.08 | 44.8
concentration: 33.6 (µM), S9 metabolic activation: with S9, exposure time: 3-4 hours | 0.24 | 2.22 | 76.6
concentration: 33.6 (µM), S9 metabolic activation: without S9, exposure time: 24 hours | – | – | 27.5
concentration: 41.9 (µM), S9 metabolic activation: with S9, exposure time: 3-4 hours | 0.48 | 1.52 | 91.3
concentration: 41.9 (µM), S9 metabolic activation: without S9, exposure time: 24 hours | – | – | 32.5
concentration: 52.4 (µM), S9 metabolic activation: with S9, exposure time: 3-4 hours | 0.3 | 0.98 | 85.4
concentration: 52.4 (µM), S9 metabolic activation: without S9, exposure time: 24 hours | 1.06 | 0.87 | 40
concentration: 65.5 (µM), S9 metabolic activation: with S9, exposure time: 3-4 hours | 0.14 | 1.16 | 88
concentration: 65.5 (µM), S9 metabolic activation: without S9, exposure time: 24 hours | – | – | 31.6
concentration: 81.9 (µM), S9 metabolic activation: with S9, exposure time: 3-4 hours | 0.22 | 1.78 | 89.7
concentration: 81.9 (µM), S9 metabolic activation: without S9, exposure time: 24 hours | 1.06 | 0.72 | 40.4
concentration: 102 (µM), S9 metabolic activation: with S9, exposure time: 3-4 hours | 0.24 | 1.7 | 92.3
concentration: 102 (µM), S9 metabolic activation: without S9, exposure time: 24 hours | – | – | 33.8
concentration: 128 (µM), S9 metabolic activation: with S9, exposure time: 3-4 hours | 0.48 | 1.62 | 92.1
concentration: 128 (µM), S9 metabolic activation: without S9, exposure time: 24 hours | 0.86 | 1.04 | 59.2
concentration: 160 (µM), S9 metabolic activation: with S9, exposure time: 3-4 hours | 0.4 | 1.9 | 80.5
concentration: 160 (µM), S9 metabolic activation: without S9, exposure time: 24 hours | 1.5 | 0.96 | 56.3
concentration: 200 (µM), S9 metabolic activation: with S9, exposure time: 3-4 hours | 0.26 | 1.44 | 88.7
concentration: 200 (µM), S9 metabolic activation: without S9, exposure time: 24 hours | 1.62 | 1.22 | 51.7

Oc1cc(Cl)ccc1Oc1ccc(Cl)cc1Cl [Triclosan]
Conditions | hypodiploid nuclei frequency, CHO-K1 [2] [%] | micronucleus frequency, CHO-K1 [3] [%] | relative survival, CHO-K1 [1]
concentration: 4.5 (µM), S9 metabolic activation: with S9, exposure time: 3-4 hours | 0.38 | 1.15 | 121
concentration: 4.5 (µM), S9 metabolic activation: without S9, exposure time: 24 hours | 6.23 | 2.33 | 100
concentration: 5.63 (µM), S9 metabolic activation: with S9, exposure time: 3-4 hours | 0.38 | 1.16 | 109
concentration: 5.63 (µM), S9 metabolic activation: without S9, exposure time: 24 hours | 3.36 | 1.99 | 96.3
concentration: 7.04 (µM), S9 metabolic activation: with S9, exposure time: 3-4 hours | 0.38 | 1.61 | 108
concentration: 7.04 (µM), S9 metabolic activation: without S9, exposure time: 24 hours | 1.44 | 1.75 | 101
concentration: 8.8 (µM), S9 metabolic activation: with S9, exposure time: 3-4 hours | 0.42 | 1.71 | 113
concentration: 8.8 (µM), S9 metabolic activation: without S9, exposure time: 24 hours | 1.89 | 1.77 | 114
concentration: 11 (µM), S9 metabolic activation: with S9, exposure time: 3-4 hours | 0.24 | 1.45 | 119
concentration: 11 (µM), S9 metabolic activation: without S9, exposure time: 24 hours | 1.48 | 2.52 | 110
concentration: 13.7 (µM), S9 metabolic activation: with S9, exposure time: 3-4 hours | 0.28 | 1.24 | 113
concentration: 13.7 (µM), S9 metabolic activation: without S9, exposure time: 24 hours | 1.49 | 1.86 | 99.8
concentration: 17.2 (µM), S9 metabolic activation: with S9, exposure time: 3-4 hours | 0.26 | 1.61 | 105
concentration: 17.2 (µM), S9 metabolic activation: without S9, exposure time: 24 hours | 1.07 | 2.27 | 96.8
concentration: 21.5 (µM), S9 metabolic activation: with S9, exposure time: 3-4 hours | 0.29 | 1.55 | 95.9
concentration: 21.5 (µM), S9 metabolic activation: without S9, exposure time: 24 hours | 1.18 | 2.54 | 80.1
concentration: 26.8 (µM), S9 metabolic activation: with S9, exposure time: 3-4 hours | 0.34 | 1.69 | 104
concentration: 26.8 (µM), S9 metabolic activation: without S9, exposure time: 24 hours | – | – | 50.1
concentration: 33.6 (µM), S9 metabolic activation: with S9, exposure time: 3-4 hours | 0.21 | 1.77 | 113
concentration: 33.6 (µM), S9 metabolic activation: without S9, exposure time: 24 hours | 7.37 | 2.47 | 58
concentration: 41.9 (µM), S9 metabolic activation: with S9, exposure time: 3-4 hours | 0.26 | 1.77 | 97.6
concentration: 41.9 (µM), S9 metabolic activation: without S9, exposure time: 24 hours | 5.17 | 2.1 | 61.6
concentration: 52.4 (µM), S9 metabolic activation: with S9, exposure time: 3-4 hours | 0.2 | 1.51 | 87.7
concentration: 52.4 (µM), S9 metabolic activation: without S9, exposure time: 24 hours | 2.72 | 1.58 | 57.5
concentration: 65.5 (µM), S9 metabolic activation: with S9, exposure time: 3-4 hours | 0.35 | 2.26 | 84.5
concentration: 65.5 (µM), S9 metabolic activation: without S9, exposure time: 24 hours | 2.55 | 1.08 | 57.1
concentration: 81.9 (µM), S9 metabolic activation: with S9, exposure time: 3-4 hours | – | – | 36
concentration: 81.9 (µM), S9 metabolic activation: without S9, exposure time: 24 hours | 2.83 | 1.15 | 52.9
concentration: 102 (µM), S9 metabolic activation: with S9, exposure time: 3-4 hours | – | – | 1.89
concentration: 102 (µM), S9 metabolic activation: without S9, exposure time: 24 hours | – | – | 41.2
concentration: 128 (µM), S9 metabolic activation: with S9, exposure time: 3-4 hours | – | – | 0.13
concentration: 128 (µM), S9 metabolic activation: without S9, exposure time: 24 hours | – | – | 21.1
concentration: 160 (µM), S9 metabolic activation: with S9, exposure time: 3-4 hours | – | – | 0.02
concentration: 160 (µM), S9 metabolic activation: without S9, exposure time: 24 hours | – | – | 0.9
concentration: 200 (µM), S9 metabolic activation: with S9, exposure time: 3-4 hours | – | – | 0.05
concentration: 200 (µM), S9 metabolic activation: without S9, exposure time: 24 hours | – | – | 0.09

O=P(OC(CCl)CCl)(OC(CCl)CCl)OC(CCl)CCl [Tris(1,3-dichloro-2-propyl)phosphate]
Conditions | hypodiploid nuclei frequency, CHO-K1 [2] [%] | micronucleus frequency, CHO-K1 [3] [%] | relative survival, CHO-K1 [1]
concentration: 4.5 (µM), S9 metabolic activation: with S9, exposure time: 3-4 hours | 0.32 | 1.54 | 101
concentration: 4.5 (µM), S9 metabolic activation: without S9, exposure time: 24 hours | 0.78 | 1.3 | 110
concentration: 5.63 (µM), S9 metabolic activation: with S9, exposure time: 3-4 hours | 0.22 | 2.18 | 83.5
concentration: 5.63 (µM), S9 metabolic activation: without S9, exposure time: 24 hours | 0.4 | 1.54 | 105
concentration: 7.04 (µM), S9 metabolic activation: with S9, exposure time: 3-4 hours | 0.24 | 1.56 | 85
concentration: 7.04 (µM), S9 metabolic activation: without S9, exposure time: 24 hours | 0.6 | 1.92 | 74.2
concentration: 8.8 (µM), S9 metabolic activation: with S9, exposure time: 3-4 hours | 0.3 | 0.96 | 77.2
concentration: 8.8 (µM), S9 metabolic activation: without S9, exposure time: 24 hours | 0.62 | 0.9 | 74.4
concentration: 11 (µM), S9 metabolic activation: with S9, exposure time: 3-4 hours | 0.2 | 1.56 | 81.8
concentration: 11 (µM), S9 metabolic activation: without S9, exposure time: 24 hours | 0.48 | 1.02 | 61
concentration: 13.7 (µM), S9 metabolic activation: with S9, exposure time: 3-4 hours | 0.3 | 1.46 | 86.7
concentration: 13.7 (µM), S9 metabolic activation: without S9, exposure time: 24 hours | 0.44 | 1.32 | 74.9
concentration: 17.2 (µM), S9 metabolic activation: with S9, exposure time: 3-4 hours | 0.2 | 1.58 | 86.4
concentration: 17.2 (µM), S9 metabolic activation: without S9, exposure time: 24 hours | 0.58 | 1.26 | 80
concentration: 21.5 (µM), S9 metabolic activation: with S9, exposure time: 3-4 hours | 0.22 | 1.62 | 91.4
concentration: 21.5 (µM), S9 metabolic activation: without S9, exposure time: 24 hours | 0.44 | 1.22 | 80.3
concentration: 26.8 (µM), S9 metabolic activation: with S9, exposure time: 3-4 hours | 0.16 | 1.36 | 99.6
concentration: 26.8 (µM), S9 metabolic activation: without S9, exposure time: 24 hours | 0.86 | 0.86 | 79.2
concentration: 33.6 (µM), S9 metabolic activation: with S9, exposure time: 3-4 hours | 0.36 | 1.58 | 99.6
concentration: 33.6 (µM), S9 metabolic activation: without S9, exposure time: 24 hours | 0.86 | 1.1 | 85.9
concentration: 41.9 (µM), S9 metabolic activation: with S9, exposure time: 3-4 hours | 0.12 | 1.16 | 90.1
concentration: 41.9 (µM), S9 metabolic activation: without S9, exposure time: 24 hours | 0.8 | 0.78 | 98.6
concentration: 52.4 (µM), S9 metabolic activation: with S9, exposure time: 3-4 hours | 0.28 | 0.9 | 74.7
concentration: 52.4 (µM), S9 metabolic activation: without S9, exposure time: 24 hours | 0.68 | 1.06 | 85
concentration: 65.5 (µM), S9 metabolic activation: with S9, exposure time: 3-4 hours | 0.2 | 1.14 | 71
concentration: 65.5 (µM), S9 metabolic activation: without S9, exposure time: 24 hours | 0.8 | 0.9 | 63.1
concentration: 81.9 (µM), S9 metabolic activation: with S9, exposure time: 3-4 hours | 0.14 | 1.08 | 76.8
concentration: 81.9 (µM), S9 metabolic activation: without S9, exposure time: 24 hours | 0.9 | 1.24 | 77.6
concentration: 102 (µM), S9 metabolic activation: with S9, exposure time: 3-4 hours | 0.22 | 1.28 | 67.8
concentration: 102 (µM), S9 metabolic activation: without S9, exposure time: 24 hours | 0.8 | 1.12 | 54.1
concentration: 128 (µM), S9 metabolic activation: with S9, exposure time: 3-4 hours | 0.2 | 1.7 | 76.1
concentration: 128 (µM), S9 metabolic activation: without S9, exposure time: 24 hours | 0.48 | 0.8 | 50.2
concentration: 160 (µM), S9 metabolic activation: with S9, exposure time: 3-4 hours | 0.14 | 1.66 | 73.8
concentration: 160 (µM), S9 metabolic activation: without S9, exposure time: 24 hours | 0.52 | 0.94 | 53.6
concentration: 200 (µM), S9 metabolic activation: with S9, exposure time: 3-4 hours | 0.32 | 1.64 | 61
concentration: 200 (µM), S9 metabolic activation: without S9, exposure time: 24 hours | 0.44 | 0.78 | 42.2
